# In all, about 2,900 compounds were measured (“NF-kB SEAP reporter activity, fold change vs agonist alone”: median about 0.99, highest 2% from about 2.6 on). This is one part of the list.
# Columns and labels:
# RAW-Dual [1] = assay: NF-kB SEAP reporter activity, fold change vs agonist alone; higher = enhanced NF-kB activity; settings: library stock concentration (final ~1000-fold dilution): 10 mM
# Procedure, shortened: (§1)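 Supernatant from RAW-Dual macrophages was read after 20 hours for IRF by QuantiLuc luminescence and for NF-κB by QuantiBlue absorbance at 620 nm. The cells (50,000 cells/well in DMEM, 384-well plates, 37 °C, 5% CO2) had received 50 nL of library stock by pin tool and, 1 h later, a PRR agonist. Reporter activity is expressed relative to agonist-alone wells as fold change, and wells were flagged cytotoxic if IncuCyte confluency was under 70% of agonist controls in both mask sets.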
# RAW-Dual [2] = assay: NF-kB SEAP reporter activity, fold change vs agonist alone; cytotoxicity flag (confluency mask): cytotoxic (confluency <70% of control); higher = enhanced NF-kB activity
# Procedure, shortened: as §1
# RAW-Dual [3] = assay: NF-kB SEAP reporter activity, fold change vs agonist alone; cytotoxicity flag (confluency mask): not cytotoxic; higher = enhanced NF-kB activity
# Procedure, shortened: as §1
# [4] = cytotoxicity flag (confluency mask): cytotoxic (confluency <70% of control), agonist: Imiquimod (TLR7) […]
# [5] = cytotoxicity flag (confluency mask): cytotoxic (confluency <70% of control), agonist: MPLA (TLR4) […]
# [6] = cytotoxicity flag (confluency mask): not cytotoxic, agonist: Imiquimod (TLR7) […]
# [7] = cytotoxicity flag (confluency mask): not cytotoxic, agonist: MPLA (TLR4) […]
# [8] = agonist: ODN 1826 (TLR9) 0.5 ug/mL
# [9] = agonist: Pam2CSK4 (TLR2/6) 0.1 ug/mL
# [10] = agonist: Pam3CSK4 (TLR2/1) 0.1 ug/mL
compound,measurement,setting,value
CCCCCCCCOC(=O)c1cc(O)c(O)c(O)c1,NF-kB SEAP reporter activity,RAW-Dual [1]; [4],0.278
same,NF-kB SEAP reporter activity,RAW-Dual [1]; [5],0.383
CN(C)CC1CCn2cc(c3ccccc32)C2=C(C(=O)NC2=O)c2cn(c3ccccc23)CCO1.Cl (centres undefined) (library stock concentration (final ~1000-fold dilution): 10 mM),NF-kB SEAP reporter activity,RAW-Dual [2]; agonist: LPS (TLR4) 0.1 ug/mL,3.03
Cl.Clc1cccc(-c2nnnn2Cc2cccnc2)c1Cl,NF-kB SEAP reporter activity,RAW-Dual [1]; [6],1
same,NF-kB SEAP reporter activity,RAW-Dual [1]; [7],1.06
Cl.Clc1cccc(-c2nnnn2Cc2cccnc2)c1Cl (library stock concentration (final ~1000-fold dilution): 10 mM),NF-kB SEAP reporter activity,RAW-Dual [3]; agonist: LPS (TLR4) 0.1 ug/mL,1.07
same,NF-kB SEAP reporter activity,RAW-Dual [3]; [8],0.95
same,NF-kB SEAP reporter activity,RAW-Dual [3]; [9],1.04
same,NF-kB SEAP reporter activity,RAW-Dual [3]; [10],0.958
COc1nc(-c2ccc3c(c2)OCO3)n(-c2ccc(NC(=O)CSc3ccccc3)cc2)n1,NF-kB SEAP reporter activity,RAW-Dual [1]; [6],0.715
same,NF-kB SEAP reporter activity,RAW-Dual [1]; [7],1
COc1nc(-c2ccc3c(c2)OCO3)n(-c2ccc(NC(=O)CSc3ccccc3)cc2)n1 (library stock concentration (final ~1000-fold dilution): 10 mM),NF-kB SEAP reporter activity,RAW-Dual [3]; agonist: LPS (TLR4) 0.1 ug/mL,1.21
same,NF-kB SEAP reporter activity,RAW-Dual [3]; [8],0.813
same,NF-kB SEAP reporter activity,RAW-Dual [3]; [9],0.809
same,NF-kB SEAP reporter activity,RAW-Dual [3]; [10],0.821
CCOC(=O)C(CCc1ccccc1)NC1CCc2ccccc2N(CC(=O)O)C1=O.Cl (centres undefined) (library stock concentration (final ~1000-fold dilution): 10 mM),NF-kB SEAP reporter activity,RAW-Dual [3]; agonist: LPS (TLR4) 0.1 ug/mL,0.997
same,NF-kB SEAP reporter activity,RAW-Dual [3]; [8],0.98
same,NF-kB SEAP reporter activity,RAW-Dual [3]; [9],1.03
same,NF-kB SEAP reporter activity,RAW-Dual [3]; [10],0.994
CCOC(=O)C(CCc1ccccc1)NC1CCc2ccccc2N(CC(=O)O)C1=O.Cl (centres undefined),NF-kB SEAP reporter activity,RAW-Dual [1]; [6],0.99
same,NF-kB SEAP reporter activity,RAW-Dual [1]; [7],0.958
O=C(Nc1ccc(-c2ccnc(Nc3ccc(N4CCOCC4)cc3)n2)cc1)C1CCCN1 (centres undefined),NF-kB SEAP reporter activity,RAW-Dual [1]; [6],1.6
same,NF-kB SEAP reporter activity,RAW-Dual [1]; [7],2.46
O=C(Nc1ccc(-c2ccnc(Nc3ccc(N4CCOCC4)cc3)n2)cc1)C1CCCN1 (centres undefined) (library stock concentration (final ~1000-fold dilution): 10 mM),NF-kB SEAP reporter activity,RAW-Dual [3]; agonist: LPS (TLR4) 0.1 ug/mL,1.86
same,NF-kB SEAP reporter activity,RAW-Dual [3]; [8],0.272
same,NF-kB SEAP reporter activity,RAW-Dual [3]; [9],1.05
same,NF-kB SEAP reporter activity,RAW-Dual [3]; [10],1.67
CCS(=O)(=O)Nc1ccc2c(c1)/C(=C(/Nc1ccc(CN3CCCCC3)cc1)c1ccccc1)C(=O)N2 (library stock concentration (final ~1000-fold dilution): 10 mM),NF-kB SEAP reporter activity,RAW-Dual [2]; agonist: LPS (TLR4) 0.1 ug/mL,0.196
same,NF-kB SEAP reporter activity,RAW-Dual [2]; [8],0.197
same,NF-kB SEAP reporter activity,RAW-Dual [2]; [9],0.0873
same,NF-kB SEAP reporter activity,RAW-Dual [2]; [10],0.163
CCS(=O)(=O)Nc1ccc2c(c1)/C(=C(/Nc1ccc(CN3CCCCC3)cc1)c1ccccc1)C(=O)N2,NF-kB SEAP reporter activity,RAW-Dual [1]; [4],0.214
same,NF-kB SEAP reporter activity,RAW-Dual [1]; [5],0.227
COc1ccc2[nH]c([S+]([O-])Cc3ncc(C)c(OC)c3C)nc2c1 (centres undefined) (library stock concentration (final ~1000-fold dilution): 10 mM),NF-kB SEAP reporter activity,RAW-Dual [3]; agonist: LPS (TLR4) 0.1 ug/mL,1.09
same,NF-kB SEAP reporter activity,RAW-Dual [3]; [8],1.15
same,NF-kB SEAP reporter activity,RAW-Dual [3]; [9],1.36
same,NF-kB SEAP reporter activity,RAW-Dual [3]; [10],1.2
COc1ccc2[nH]c([S+]([O-])Cc3ncc(C)c(OC)c3C)nc2c1 (centres undefined),NF-kB SEAP reporter activity,RAW-Dual [1]; [6],1.09
same,NF-kB SEAP reporter activity,RAW-Dual [1]; [7],0.941
